Laboratory results published in the supplement of paper PMC11417369.
Some of the results follow.

tested on: PF3D7_0420300 AP2 domain 1 (GST-tagged); assay: gcPBM binding intensity (ln(normalized median fluorescence intensity)); higher = stronger DNA binding
Outline: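 GST-fused DNA-binding domains of P. falciparum, expressed in E. coli, were applied at about 25 μg on average for 1 h to an Agilent 4 × 180k array of primer-extended double-stranded 36-bp intergenic genomic probes and negative controls. Binding intensity is the highest Masliner-normalised natural-log median intensity across replicate spots of either probe orientation, measured with Alexa488 anti-GST antibody and a 488 nm scan.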

Sequence	gcPBM binding intensity (ln)
ATAAATGGAAACAAAAGTACTAAAAAAAAAAAATAA [XGTACX_site1510]	9.32
AATAATATAGATTGTACACACAAAATGGGAAAAAAA [CACACA_site1886]	9.86
TATATATGTATGTATTGTACAATTAAAAATATGTAT [XGTACX_site3990]	9.28
AAAAAAAAAAAAGATACACACAAAAATGAATATATA [CACACA_site2099]	9.8
ATATGAAATAATAATAGTACATAAAATAATTTTACT [XGTACX_site6964]	9.31
ATAGAAATATATATATGTACATATAGATAAATCTAT [XGTACX_site7833]	9.28
ATAAATACAGATAACACACACATATATATATATATA [CACACA_site5431]	9.72
AAAAATAACGTAAATTGTACATGTAAAATTTTCTAT [XGTACX_site7158]	9.25
TTATTTATTTATAATAGTACAATTTAATGATCTTCT [XGTACX_site4831]	9.02
TGTTTTATACTAAATGAACACACACCCATATATATA [CACACA_site7912]	9.64
CAATATATTTGATTTACACACTTACAATGTATATAA [CACACA_site2994]	9.33
AATAATATATATATATATATAATAAAATATAAATAG [CACACA_negctrl_site1515]	9.34
CCAACATGCCCACGCACACACAAAAAAAGCATGCAT [CACACA_site4217]	9.58
TAAAAAATGAAAAAGCGTACATGTTTTCTTATATTA [XGTACX_site1722]	9.08
TTTTCTAAAATGAATTGTACTTGATTATTTAAAAAA [XGTACX_site6097]	8.6
ATACTAAAAAGTATCTGTACTTATTTTAAAAATAAA [XGTACX_site4116]	8.95
TATTTACTTATATGCACACATAAATGTGAATTATGG [CACACA_site3777]	9.27
TAAATAATTAAAATATGTACTGAAATGTAATTATTT [XGTACX_site5894]	9.2
TGTATCATAAAAATAACACACGTATTTTTTTTTATT [CACACA_site1050]	9.38

Sequence	gcPBM binding intensity (ln)
TTATTTATATATTCATGTACATAACATTTCATTCGA [XGTACX_site4388]	9.06
TTTTAAGAATAAAATTGTACACATACATGTGTTCGC [XGTACX_site438]	9.09
ATATAAATTTTTTAGAGTACTAAAATAAAATAATAT [XGTACX_site2118]	9.02
TTCTCATTCAAATTAGTGCATTTTTGTTATTACATT	9.46
TGTGTATATATATAATGTACATAAAGATTTATATAT [XGTACX_site5835]	9.28
AACAGATAAAAGGGTACACACATATATACCTGTACA [CACACA_site4285]	9.64
TACATAAATATATGTGTGCACAATTTCGTATATTTA [GTGCAC_site9859]	9.44
TGTACATTCGGAGTAAAAAAAAATTTATACAATTAC [CACACA_negctrl_site1451]	9
TGTATTAAATTTTGAACACACAAAATAAAACATATA [CACACA_site1672]	9.37
AAAATCACAAGACACACACACACAAAAAAAAAAAAA [CACACA_site6791]	10
AGTATAAAATAAATGTGTACACAAGAAAATATGTTA [XGTACX_site8381]	9.58
ATATATATATGTATGTGTCCACAAGGAGATATATAT [XGTACX_site783]	9.6
AAAATATTTTAATGTTGTACATTAATATATTATATA [XGTACX_site2513]	8.93
AGTAAATAATAGATCGCATGTAATAACTAGTAGGAA [TGCATGCA_site948]	9.57
ATTATAAAGACATATACACACATACGTACATACATA [CACACA_site5893]	9.77
ACAATTGAAGAAATACGTACATAAAGAAAAACTAGT [XGTACX_site820]	9.65
TCGTATCTATTGAGGGTGCCTCTATAATTGATACAA [GTGCAC_site9636]	8.89
AACCTAAGCATTCTTCAAATTATATATGTAAAATGA [CACACA_negctrl_site261]	9.03
TAATATAATATATGCACACAAATATGTATTTATGTG [CACACA_site5210]	9.64

Sequence	gcPBM binding intensity (ln)
GAAAAAATAAAATAAAGTACATAACTATAATAAAAA [XGTACX_site4807]	9.53
CTTACACCCATATATACACACATGTATATTTTATAT [CACACA_site4462]	9.64
TACTCCTCAATATTATGTACATATAATAGTTATAAA [XGTACX_site8551]	9.23
ATATATAAACACTCTTGTACATAATAATGTATATAT [XGTACX_site2451]	9.27
TTTCAAAAAAATAGCTATATTTATATTAATGCACGA [TGCATGCA_negctrl_site63]	9.09
TATATAACTGTCTTCAGTACACAATAAATAAAAATA [XGTACX_site8856]	9.19
TAATAAAAATAAAATTGTACTAATAACATTTCATTA [XGTACX_site3703]	8.94
AAAGGTGTATATAATACACACGTGTGATTAAAATTG [CACACA_site8104]	9.48
AACTTTGAGACATAGTGTACTTACACAATCTTAATA [XGTACX_site3712]	9.14
ACATTTTTTTTTTTTTTTCTTTTTCTTTTTCTTTTT [CACACA_negctrl_site1295]	9.53
CATATTTGATACAAGTGTACTTTATTTAAAAATTCT [XGTACX_site8408]	9.01
TATTTAATGCAAAAACGTACATAAATAACATTCACA [XGTACX_site5356]	9.19
TATAAACACCCATATAAACACACATACATACATACA [CACACA_site8791]	9.58
TATATATATATTAGTGGTACAAGATTTTTTTCTTTT [XGTACX_site4619]	9.24
CTAGACTTTTTACAATGTACATATTTATGTATTATT [XGTACX_site1833]	9.23
TCTTGTAGATATATTTGTACATATATTTATGGGTAT [XGTACX_site1139]	9.44
TTTTTTCATAAATAATGTACATATATATATATATAT [XGTACX_site3620]	9.07
ATATTATTTATAAGTTGTACGGTATAATATAATATA [XGTACX_site5371]	9.14
AAAAAATATATATTAACACACACACTAATAAAAAAA [CACACA_site8366]	10
